Several values for one entry are separate records, joined by “and”; a condition that tells them apart may be missing. Equal values may be shown once. The shares of active, inactive and inconclusive entries below differ from those in the screen. Potencies of inconclusive entries are doubtful fits and often do not repeat. Where a structure was tested more than once in an assay, its records may differ in their call. Activity calls are given as the source filed them. Unless noted, calls come from the whole dose curve; as a rule, active = well fitted cell-killing curve with a large enough effect in the repeat runs; inconclusive = weak or mixed curves, or effect the other way; inactive = no such curve, though single readings can be large or run the other way.
Assay: qHTS assay to identify small molecule antagonists of the TGF-beta/Smad signaling pathway (AID 1346924; active = well fitted inhibition curve with a large enough effect in the signal ratio in the repeat runs, not every such curve was filed as active; inconclusive = weak or mixed curves; the % refers to the signal ratio)
Details: SBE-bla HEK293T, TGF-beta/Smad reporter, beta-lactamase ratio; activity, negative = inhibition: at 76.8 µM (top of the series) unless noted
Outline: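 SBE-bla HEK 293T cells were plated overnight, then received compound in DMSO plus TGF-beta1 (added as a 0.25 ng/mL solution) and were incubated 5 h at 37 C. Beta-lactamase reporter activity was read after 2 h at room temperature with LiveBLAzer B/G FRET substrate (ex 405, em 460/530 nm).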
Potency is the fitted concentration of half-maximal effect; tags give direction and shape of the fitted curve or compound fluorescence and quenching.

SMILES | activity, negative = inhibition | Potency
CNCCS(=O)(=O)O | inconclusive: -1.34% | –
O=C(O)Cc1c(Cl)ccc(Cl)c1Cl | inconclusive: 2.6% | –
CC(C)=NNC(N)=S | – | inconclusive: 24.5 µM [rising, partial curve, poor fit]
O=C(Oc1ccccc1)c1ccccc1 | – | inconclusive: 49 µM [rising, partial curve]
CCCCCCCCCCCCCCOS(=O)(=O)O | inconclusive: -11% | –
C=CC[N+](C)(C)CC=C | inconclusive: 3.21% | –
CC(C)C[C@H](NC(=O)[C@H](Cc1ccccc1)NC(=O)c1cnccn1)B(O)O | inconclusive: -1.18% [at 35.3 µM] | –
O=C(O)c1cccnc1Nc1cccc(C(F)(F)F)c1 | inconclusive: -1.12% [at 35.3 µM] | –
CC[C@H](NC(C)C)[C@H](O)c1ccc(O)c2[nH]c(=O)ccc12 | inconclusive: 6.16% [at 35.3 µM] | –
Cc1ccc(/C=N/n2c(-c3ccccc3)csc2=S)cc1 | inconclusive: -28.9% [at 35.3 µM] | –
O=C(O)c1ccc2c(c1)nc(C(=O)NC1CCN(C3CC3)CC1)n2Cc1cc(-c2ccc(Cl)s2)on1 | inconclusive: 0.205% [at 15.8 µM] | –
OCCC1CCCCN1 (stereo unspecified) | inconclusive: -4.4% | –
C[C@]12CCC(=O)C=C1C=C[C@@H]1[C@@H]2CC[C@@]2(C)[C@H]1CC[C@@]21CCC(=O)O1 | inconclusive: 0.632% [at 35.3 µM] | –
CCc1ccc(CCOc2ccc(CC3SC(=O)NC3=O)cc2)nc1 (stereo unspecified) | – | inconclusive: 11 µM [fluorescent, full curve] and inconclusive: 10.7 µM [fluorescent, partial curve]
Cc1c(-c2ccccc2)oc2c(C(=O)OCCN3CCCCC3)cccc2c1=O | inconclusive: 0.948% [at 35.3 µM] | –
OCCCO | inconclusive: -11.5% | –
O=C(Nc1ccccc1)c1cc([N+](=O)[O-])ccc1Cl | – | inconclusive: 27.5 µM [fluorescent, partial curve]
C#C[C@]1(O)CC[C@H]2[C@@H]3CCC4=CC(=O)CC[C@@H]4[C@H]3CC[C@@]21C | – | inconclusive: 30.9 µM
O=C1[C@H](CC[C@H](O)c2ccc(F)cc2)[C@@H](c2ccc(O)cc2)N1c1ccc(F)cc1 | inconclusive: -14.8% [at 35.3 µM] | –
CC(=O)C(C)C | inconclusive: 2.95% | –

SMILES | activity, negative = inhibition | Potency
CC(C)(C)C1=CC(=O)C(C(C)(C)C)=CC1=O | inconclusive: 5.64% [at 35.3 µM] | –
C=CC(=O)OCC(Br)CBr (stereo unspecified) | inconclusive: 0.214% | –
c1ccc2c(c1)-c1ccc3ccc4cccc5cc-2c1c3c45 | – | inconclusive: 21.3 µM [fluorescent, partial curve]
Nc1ccc(Oc2cccc(Oc3ccc(N)cc3)c2)cc1 | inconclusive: 11.6% | –
CCCCCOC(=O)c1ccc(O)cc1 | inconclusive: -13.4% | –
CCCCOC(=O)C(C)Oc1ccc(Oc2ccc(C(F)(F)F)cn2)cc1 (stereo unspecified) | inconclusive: -58.7% | –
Nc1ccc(C(=O)OCCCOC(=O)c2ccc(N)cc2)cc1 | inconclusive: 4.8% | –
C=CC(=O)OCC(C)OCC(C)OCC(C)OC(=O)C=C (stereo unspecified) | inconclusive: 29.7% | –
O=[N+]([O-])c1ccc(O)cc1C(F)(F)F | inconclusive: -19.8% | –
Cc1nc(-c2ccccn2)ncc1C(=O)Nn1cc(C)c2cc(F)ccc21 | inconclusive: 0.191% | –
O=C(O)c1cn(-c2ccc(F)cc2)c2cc(N3CCNCC3)c(F)cc2c1=O | – | inconclusive: 7.56 µM [rising, partial curve, poor fit]
C[C@]12CCC(=O)C=C1[C@@H]1C[C@@H]1[C@H]1[C@@H]3[C@@H]4C[C@@H]4[C@@]4(CCC(=O)O4)[C@@]3(C)CC[C@@H]12 | – | inconclusive: 16.9 µM [fluorescent, partial curve]
NNc1nncc2ccccc12 | inconclusive: 19.2% | –
CCCCCCCCCCCCOCCOS(=O)(=O)O | inconclusive: -9.09% | –
CNCCCCOc1ccccc1Cc1ccccc1 | inconclusive: -20.1% [at 35.3 µM] | –
CC1=C(CC(=O)O)c2cc(F)ccc2/C1=C\c1ccc(S(C)(=O)=O)cc1 | – | inconclusive: 9.52 µM [fluorescent]
COc1ccc2c(c1)c(CC(=O)O)c(C)n2C(=O)c1ccc(Cl)cc1 | – | inconclusive: 5.53 µM [fluorescent, full curve] and inconclusive: 11 µM [fluorescent, partial curve] and inconclusive: 6.01 µM [fluorescent, full curve]
F[B-](F)(F)F | inconclusive: 17.4% | –
CCCCCC(N)=O | inconclusive: -18.7% | –

Assay: Caspase-3/7 induction in CHO-K1 cells by small molecules, qHTS cell viability counter screen (AID 1346979); note: nearly all actives have a fitted effect of over 35% in size
Details: CellTiter-Fluor fluorescence, 17 h; series mostly up to 92.4 µM
Outline: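 In the same wells as the caspase read, viability of compound-treated wild-type CHO-K1 cells was assessed using CellTiter-Fluor, added after 16hr at 37C and measured by fluorescence following 1hr further incubation.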

SMILES | Potency
CNCCS(=O)(=O)O | inactive
O=C(O)Cc1c(Cl)ccc(Cl)c1Cl | inconclusive: 48.6 µM [rising, partial curve, poor fit]
CC(C)=NNC(N)=S | inconclusive: 68.6 µM [cytotoxic, single point]
O=C(Oc1ccccc1)c1ccccc1 | inconclusive: 30.6 µM [rising, partial curve]
CCCCCCCCCCCCCCOS(=O)(=O)O | inconclusive: 48.6 µM [cytotoxic, partial curve]
C=CC[N+](C)(C)CC=C | inconclusive: 61.6 µM [cytotoxic, partial curve]
CC(C)C[C@H](NC(=O)[C@H](Cc1ccccc1)NC(=O)c1cnccn1)B(O)O | active: 0.0168 µM
O=C(O)c1cccnc1Nc1cccc(C(F)(F)F)c1 | inactive
CC[C@H](NC(C)C)[C@H](O)c1ccc(O)c2[nH]c(=O)ccc12 | inconclusive: 29.8 µM [rising, single point]
Cc1ccc(/C=N/n2c(-c3ccccc3)csc2=S)cc1 | inconclusive: 33.5 µM [cytotoxic, single point]
O=C(O)c1ccc2c(c1)nc(C(=O)NC1CCN(C3CC3)CC1)n2Cc1cc(-c2ccc(Cl)s2)on1 | inconclusive: 15.6 µM [cytotoxic, partial curve, poor fit]
OCCC1CCCCN1 (stereo unspecified) | inconclusive: 69 µM [cytotoxic, single point]
C[C@]12CCC(=O)C=C1C=C[C@@H]1[C@@H]2CC[C@@]2(C)[C@H]1CC[C@@]21CCC(=O)O1 | inconclusive: 33.5 µM [cytotoxic, single point]
CCc1ccc(CCOc2ccc(CC3SC(=O)NC3=O)cc2)nc1 (stereo unspecified) | inconclusive: 68.6 µM [cytotoxic]
Cc1c(-c2ccccc2)oc2c(C(=O)OCCN3CCCCC3)cccc2c1=O | inactive
O=C(Nc1ccccc1)c1cc([N+](=O)[O-])ccc1Cl | inconclusive: 61.1 µM [cytotoxic, single point]
C#C[C@]1(O)CC[C@H]2[C@@H]3CCC4=CC(=O)CC[C@@H]4[C@H]3CC[C@@]21C | active: 61.1 µM and inconclusive: 33.5 µM [cytotoxic, single point]
O=C1[C@H](CC[C@H](O)c2ccc(F)cc2)[C@@H](c2ccc(O)cc2)N1c1ccc(F)cc1 | active: 29.8 µM
CC(=O)C(C)C | active: 63.4 µM

SMILES | Potency
CC(C)(C)C1=CC(=O)C(C(C)(C)C)=CC1=O | inconclusive: 33.5 µM [cytotoxic, single point]
C=CC(=O)OCC(Br)CBr (stereo unspecified) | inconclusive: 61.1 µM [cytotoxic, single point]
c1ccc2c(c1)-c1ccc3ccc4cccc5cc-2c1c3c45 | inconclusive: 11.9 µM [rising, full curve]
Nc1ccc(Oc2cccc(Oc3ccc(N)cc3)c2)cc1 | inactive
CCCCCOC(=O)c1ccc(O)cc1 | inconclusive: 61.9 µM [cytotoxic, partial curve]
CCCCOC(=O)C(C)Oc1ccc(Oc2ccc(C(F)(F)F)cn2)cc1 (stereo unspecified) | inactive
Nc1ccc(C(=O)OCCCOC(=O)c2ccc(N)cc2)cc1 | inconclusive: 77 µM [cytotoxic, single point]
O=[N+]([O-])c1ccc(O)cc1C(F)(F)F | active: 24.3 µM
Cc1nc(-c2ccccn2)ncc1C(=O)Nn1cc(C)c2cc(F)ccc21 | inconclusive: 68.6 µM [cytotoxic, single point]
O=C(O)c1cn(-c2ccc(F)cc2)c2cc(N3CCNCC3)c(F)cc2c1=O | inactive
C[C@]12CCC(=O)C=C1[C@@H]1C[C@@H]1[C@H]1[C@@H]3[C@@H]4C[C@@H]4[C@@]4(CCC(=O)O4)[C@@]3(C)CC[C@@H]12 | inconclusive: 33.5 µM [cytotoxic, single point]
NNc1nncc2ccccc12 | active: 43.3 µM
CCCCCCCCCCCCOCCOS(=O)(=O)O | inconclusive: 68.6 µM [cytotoxic]
CNCCCCOc1ccccc1Cc1ccccc1 | inconclusive: 33.5 µM [cytotoxic, single point]
CC1=C(CC(=O)O)c2cc(F)ccc2/C1=C\c1ccc(S(C)(=O)=O)cc1 | inconclusive: 33.5 µM [cytotoxic, single point]
COc1ccc2c(c1)c(CC(=O)O)c(C)n2C(=O)c1ccc(Cl)cc1 | active: 61.5 µM and inconclusive: 68.6 µM [cytotoxic] and inconclusive: 33.5 µM [cytotoxic, single point]
F[B-](F)(F)F | inconclusive: 69.2 µM [cytotoxic, single point]
CCCCCC(N)=O | inconclusive: 33.5 µM [cytotoxic, partial curve, poor fit]

— PubChem BioAssay (Tox21)
